# Laboratory results reported in PubChem BioAssay AID1745853 (National Center for Advancing Translational Sciences (NCATS), 2022).
# “And” between values parts separate entries of the source, which are not always exact repeats. Equal entries are not always repeated. Some of the results follow. The main result of the screen is listed elsewhere. These columns were measured beside it and carry no call.
# What was measured:
# Assay in all cases: Primary Screen for Target Class Profiling of Small Molecule Inhibitors of Methyltransferases
# [1] = molecular target: Glycine N-methyltransferase (Homo sapiens) (UniProt Q14749); settings: purified enzyme, MTase-Glo SAH luminescence; measured here: GNMT inhibition; at 40 µM; stronger effect = lower value
# Method in brief: (§1)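 Each enzyme was assayed with SAM and its substrate. SAH formation detected by MTase-Glo luminescence; single-point 40 uM screen[…].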
# [2] = molecular target: Guanidinoacetate N-methyltransferase (Homo sapiens) (UniProt Q14353); settings: purified enzyme, MTase-Glo SAH luminescence; measured here: GAMT inhibition; at 40 µM; stronger effect = lower value
# Method in brief: as §1
# [3] = molecular target: Histamine N-methyltransferase (Homo sapiens) (UniProt P50135); settings: purified enzyme, MTase-Glo SAH luminescence; measured here: HNMT inhibition; at 40 µM; stronger effect = lower value
# Method in brief: as §1
# [4] = molecular target: Nicotinamide N-methyltransferase (Homo sapiens) (UniProt P40261); settings: purified enzyme, MTase-Glo SAH luminescence; measured here: NNMT inhibition; at 40 µM; stronger effect = lower value
# Method in brief: as §1
# [5] = molecular target: Phenylethanolamine N-methyltransferase (Homo sapiens) (UniProt P11086); settings: purified enzyme, MTase-Glo SAH luminescence; measured here: PNMT inhibition; at 40 µM; stronger effect = lower value
# Method in brief: as §1
# On the % scale 0 is the no-effect control and ±100 the full control effect.
Structure (SMILES),"activity change, negative = inhibition [1] [%]","activity change, negative = inhibition [2]","activity change, negative = inhibition [3] [%]","activity change, negative = inhibition [4]","activity change, negative = inhibition [5]"
CCc1ccccc1NC(=O)N1Cc2ccccc2-n2cccc2C1c1ccc(OC)cc1 (stereo unspecified),6.66,0%,0.553,0.02%,3.37%
Cn1nc(C2CCCCC2)cc1[C@H]1CN2CC[C@H]1C[C@@H]2CNC(=O)NCc1ccccc1,0.318,-1.74%,-5.96,-5.56%,1.66%
Cc1ccc(C)c(NC(=O)N2Cc3ccccc3-n3cccc3C2c2ccccc2Cl)c1 (stereo unspecified),12.9,0%,3.03,6.02%,7.91%
CCOc1ccccc1NC(=O)N1Cc2ccccc2-n2cccc2C1c1ccc(N(C)C)cc1 (stereo unspecified),4.93,1.87%,-10.4,-3.54%,1.43%
COc1ccc(C)cc1NC(=O)N1Cc2ccccc2-n2cccc2C1c1ccc(F)cc1 (stereo unspecified),-0.465,2.76%,5.49,-1.7%,3.83%
CCCN(CCC)[C@@H]1CCc2ccc(O)cc2C1,8.65,15.4%,-22.5,-4.24%,2.65%
Clc1cnc(Oc2ccc(Oc3ncc(Cl)cc3Cl)cc2)c(Cl)c1,-1.42,3.87%,0.561,-4.65%,7.32%
CNCCc1ccc(O)c(O)c1,-30.4,2.81%,-40.9,-4.87%,0.505%
CCc1ccc(NC(=O)N2Cc3ccccc3-n3cccc3C2c2cccc(C)c2)cc1 (stereo unspecified),12.2,0%,4.04,6.26%,6.25%
O=C(Nc1ccc(F)cc1F)N1Cc2ccccc2-n2cccc2C1c1ccc(F)cc1 (stereo unspecified),-1.45,0%,1.45,-3.2%,5.98%
CC(C)c1ccc(C2c3cccn3-c3ccccc3CN2C(=O)NCc2ccc(F)cc2)cc1 (stereo unspecified),-5.16,4.05%,4.28,-4.36%,0.008%
CC1c2cccn2-c2ccccc2CN1C(=O)Nc1ccc(Cl)cc1 (stereo unspecified),4.75,-0.86%,0.416,-3.28%,0.718%
C=C[C@H]1CN2CC[C@H]1C[C@H]2[C@H](O)c1ccnc2ccccc12,,10.2%,,-13.3%,-1.39%
CCC1c2cccn2-c2ccccc2CN1C(=O)Nc1cc(Cl)ccc1C (stereo unspecified),0.454,0%,4.72,0.571%,6.56%
CCOC(=O)c1cccc(NC(=O)N2Cc3ccccc3-n3cccc3C2c2cc(F)cc(F)c2)c1 (stereo unspecified),-3.73,0%,1.45,4.27%,3.56%
CC(C)c1ccc(C2c3cccn3-c3ccccc3CN2C(=O)NCc2ccco2)cc1 (stereo unspecified),-9.06,1.19%,-3.51,-10.1%,-5.54%

Structure (SMILES),"activity change, negative = inhibition [1] [%]","activity change, negative = inhibition [2]","activity change, negative = inhibition [3] [%]","activity change, negative = inhibition [4]","activity change, negative = inhibition [5]"
O=C1NC2(CCN(Cc3ccccn3)C2)Oc2ccccc21 (stereo unspecified),-10.2,1.1%,-0.15,-5.71%,-35.6%
COc1ccc(NC(=O)N2Cc3ccccc3-n3cccc3C2c2cc(F)cc(F)c2)c(OC)c1 (stereo unspecified),13.9,0.185%,8.14,4.14%,8.54%
C/C=C(\C)C(=O)O[C@H]1CC2C(=C1C)[C@H]1OC(=O)[C@](C)(O)[C@]1(O)[C@H](OC(=O)CCC)C[C@@]2(C)OC(C)=O (stereo partly specified),-0.418,9.63%,1.98,-6.75%,4.23%
CN[C@@H]1C[C@@H](c2ccc(Cl)c(Cl)c2)c2ccccc21,4.03,7.91%,-17.8,-18.1%,2.78%
COc1ccc(NC(=O)N2Cc3ccccc3-n3cccc3C2c2ccccc2C)cc1 (stereo unspecified),5.86,0%,5.34,4.05%,5.04%
Cc1cc(C)cc(NC(=O)N2Cc3ccccc3-n3cccc3C2c2ccc(N(C)C)cc2)c1 (stereo unspecified),-2.18,1.4%,-9.03,-6.57%,-5.38%
Cc1cccc(C2c3cccn3-c3ccccc3CN2C(=O)Nc2ccc3c(c2)OCCO3)c1 (stereo unspecified),6.52,0%,6.47,3.69%,4.41%
NCCc1ccc(S(=O)(=O)F)cc1,-7.99,4.13%,-1.5,-9.5%,-31.6%
O=C(Nc1ccccc1F)N1Cc2ccccc2-n2cccc2C1c1cccs1 (stereo unspecified),5.38,1.39%,-4.23,-10.6%,-3.03%
CC1Oc2cc3c(-c4c(O)cc(O)c5c(O)c6c(cc45)OC(C)C(C)C6=O)c(O)cc(O)c3c(O)c2C(=O)C1C (stereo unspecified),,-70.9%,,-61.1%,-75.3%
Cc1cccc(NC(=O)N2Cc3ccccc3-n3cccc3C2C)c1C (stereo unspecified),3.94,0.626%,5.11,-1.09%,11.2%
COC(=O)[C@@]12C(=O)C(C)C(=O)[C@]1(C)C(C)=C[C@H]1[C@]3(C=O)CC[C@H](OC(C)=O)C(C)(C)[C@H]3CC[C@@]12C (stereo partly specified),0,-11.6%,0.293,-23.2%,-4.14%
Cc1cccc(C2c3cccn3-c3ccccc3CN2C(=O)Nc2ccc(C)c(Cl)c2)c1 (stereo unspecified),4.99,2.97%,-1.98,1.45%,1.46%
Fc1cc(F)c2c(c1)[C@H]1C=CC[C@H]1C(c1cccnc1)N2 (stereo partly specified),-21.3,-9.52% and 2.45%,0.951,-33% and -14.5%,-16.8% and 2.32%
OCC1CN(c2ncccn2)CC12CCNCC2 (stereo unspecified),-2.11,-6.42%,-4.26,-11.4%,-9.63%
